According to the BET-seq Pho4 binding data (Le et al. 2018):
The other results are listed elsewhere or left out. The energies were worked out here from pooled read counts, against the library average; single values are noisy.

biological target: T1, Pho4 (S. cerevisiae) (UniProt P07270); assay: relative binding free energy (BET-seq); higher = weaker binding; details: reference: library average
T1 sequence: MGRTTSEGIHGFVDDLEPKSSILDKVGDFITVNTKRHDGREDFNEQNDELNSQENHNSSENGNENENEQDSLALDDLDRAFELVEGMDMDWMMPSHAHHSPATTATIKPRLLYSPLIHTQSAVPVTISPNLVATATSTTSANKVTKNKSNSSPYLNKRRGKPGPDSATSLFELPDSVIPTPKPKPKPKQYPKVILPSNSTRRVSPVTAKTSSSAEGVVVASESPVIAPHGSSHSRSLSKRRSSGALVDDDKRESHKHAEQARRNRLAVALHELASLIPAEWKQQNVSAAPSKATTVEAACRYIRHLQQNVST

Sequence	relative binding free energy
GTAGGCACGTGCCGTT	-0.15 kcal/mol
TGATGCACGTGTCATG	-0.1 kcal/mol
TCGGCCACGTGTGTTG	-0.09 kcal/mol
CATTTCACGTGTTTTG	0.18 kcal/mol
ATTTACACGTGGCATA	0.1 kcal/mol
GAGTTCACGTGGTAGT	0.4 kcal/mol
ATGTCCACGTGGGGAG	-0.07 kcal/mol
TCGAGCACGTGATTTG	0.11 kcal/mol
CGGAGCACGTGAGGAG	0.1 kcal/mol
TCGGGCACGTGGGTGG	-0.19 kcal/mol
TAGAACACGTGGGGTG	-0.15 kcal/mol
GCATTCACGTGGAGTG	0.15 kcal/mol
TGTAGCACGTGACTGT	0.12 kcal/mol
GCGAGCACGTGGTAGT	-0.2 kcal/mol
AGAGCCACGTGGCGGG	-0.19 kcal/mol
GGTATCACGTGAAATT	0.31 kcal/mol
CATGGCACGTGTTGAT	-0.05 kcal/mol
TTATGCACGTGATACT	-0.01 kcal/mol
ATAGTCACGTGTTGGG	0.05 kcal/mol
GGAGTCACGTGTTTGT	0.11 kcal/mol
TGGTACACGTGGATCT	0.12 kcal/mol
TGTCTCACGTGTGAGC	0.33 kcal/mol
AGCGGCACGTGGCATG	-0.25 kcal/mol
ATTGGCACGTGATGGC	-0.08 kcal/mol
CTGCACACGTGGGGGA	-0.05 kcal/mol
ATGGACACGTGGTTTG	-0.02 kcal/mol

Sequence	relative binding free energy
TTTTCCACGTGGGTTA	-0.07 kcal/mol
AGAGACACGTGTTTTT	0 kcal/mol
TGTTGCACGTGTACGT	0.05 kcal/mol
ATCGTCACGTGTATGG	0.09 kcal/mol
TCAGTCACGTGTTGAT	-0.07 kcal/mol
GCGTACACGTGGATGG	0.01 kcal/mol
GCATGCACGTGGGCGT	-0.14 kcal/mol
CAGGGCACGTGTGATT	0.13 kcal/mol
GGTAGCACGTGATTGC	0.01 kcal/mol
TTCGCCACGTGAGGGG	0.14 kcal/mol
GGTATCACGTGGGCGG	-0.04 kcal/mol
GTATTCACGTGAAGAT	0.22 kcal/mol
TGGTGCACGTGAAAGC	0.23 kcal/mol
TGGTGCACGTGAATGC	0.14 kcal/mol
GAAGGCACGTGGATTG	0.02 kcal/mol
AGGACCACGTGTGGGT	-0.14 kcal/mol
TTGTACACGTGGCGAT	0.05 kcal/mol
CATATCACGTGTGGAG	0.15 kcal/mol
TTAATCACGTGTATAT	0.14 kcal/mol
AGGTGCACGTGCGTTA	-0.11 kcal/mol
TCTTGCACGTGGGTAA	-0.21 kcal/mol
TAGGTCACGTGGTAAA	0.15 kcal/mol
AGGTTCACGTGTGCTT	0.25 kcal/mol
AATAACACGTGGGGTG	-0.25 kcal/mol
GAAGTCACGTGGTCGT	0.08 kcal/mol
TTAGTCACGTGAGCTG	0.22 kcal/mol

Sequence	relative binding free energy
GTTGGCACGTGAGGTT	0.28 kcal/mol
TAAGGCACGTGCGGAG	-0.17 kcal/mol
GCGTACACGTGGGGGT	0.05 kcal/mol
CTAATCACGTGTAAGG	0.31 kcal/mol
AACGTCACGTGTATTT	0.11 kcal/mol
TTGTTCACGTGCTTTC	0.2 kcal/mol
GTACTCACGTGAGGGT	0.41 kcal/mol
GGTCGCACGTGGGTGA	-0.16 kcal/mol
GTGGTCACGTGGTGAG	0.14 kcal/mol
AATAGCACGTGTGGTC	0.01 kcal/mol
CCGTGCACGTGGTGTG	-0.19 kcal/mol
CTGTGCACGTGGATTT	0.05 kcal/mol
TGATGCACGTGAATGA	0.21 kcal/mol
ATCGGCACGTGGATCG	0.13 kcal/mol
TAGTACACGTGATATT	0.14 kcal/mol
TAACTCACGTGTGTTA	0.13 kcal/mol
ATGTGCACGTGCCTGT	-0.23 kcal/mol
TAGTTCACGTGACGGC	0.43 kcal/mol
TGTTTCACGTGGGCAC	0.06 kcal/mol
GCGGTCACGTGTATTA	0.24 kcal/mol
GTTGTCACGTGTATAA	0.16 kcal/mol
TTGTGCACGTGAAGAT	0.11 kcal/mol
AGGCACACGTGTGGTT	0.16 kcal/mol
GATATCACGTGGGGCG	0.21 kcal/mol
GACGGCACGTGGGGAC	-0.04 kcal/mol
ATGAGCACGTGAGGGA	0.06 kcal/mol

Sequence	relative binding free energy
GCTGTCACGTGGGTAA	-0.02 kcal/mol
GAAGTCACGTGTTGGA	0.22 kcal/mol
CTTTTCACGTGCTTGG	0.15 kcal/mol
ATTGGCACGTGGATCA	-0.09 kcal/mol
GAGAACACGTGTGTTG	-0.06 kcal/mol
AAGGACACGTGTTGTT	-0.08 kcal/mol
TCTTTCACGTGTGATT	0.21 kcal/mol
TAATACACGTGTGTTA	0 kcal/mol
TGTCGCACGTGTGTGA	-0.05 kcal/mol
ATATTCACGTGGTAAA	0.23 kcal/mol
TTTGGCACGTGTGGAT	0 kcal/mol
TGGTACACGTGTCGGT	0.03 kcal/mol
GGTGGCACGTGTGAAA	-0.04 kcal/mol
TAATGCACGTGTAGGG	0.07 kcal/mol
GCAGTCACGTGGGTGC	-0.04 kcal/mol
GTTTGCACGTGTTTCT	0.05 kcal/mol
GAAGGCACGTGCTGGC	0.06 kcal/mol
ATTATCACGTGGTGAA	0.15 kcal/mol
ATGGTCACGTGAAGGG	0.32 kcal/mol
TGCCTCACGTGTTGGG	0.1 kcal/mol
GCTTGCACGTGGAGGA	-0.04 kcal/mol
TGTTCCACGTGCGTTT	0.04 kcal/mol
TCTGGCACGTGTTGTC	-0.01 kcal/mol
GTACTCACGTGTGGTT	0.36 kcal/mol
ATATACACGTGCGGTG	0.01 kcal/mol
CGATACACGTGGGATG	-0.03 kcal/mol

Sequence	relative binding free energy
CGTGACACGTGGGCTG	-0.21 kcal/mol
GGGGTCACGTGACTGA	0.27 kcal/mol
CTTTGCACGTGCGTGA	-0.07 kcal/mol
AATGTCACGTGGTTAG	0.07 kcal/mol
AGAAACACGTGGGGAG	-0.18 kcal/mol
GTGAGCACGTGGTAAA	0.01 kcal/mol
TTGGTCACGTGCTGGG	0.14 kcal/mol
TGGAACACGTGAGAGG	0.22 kcal/mol
AGGATCACGTGAAGGG	0.34 kcal/mol
TTTTCCACGTGGGCGT	-0.03 kcal/mol
CGGTTCACGTGTATAG	0.28 kcal/mol
GTTCACACGTGGTTTA	0 kcal/mol
CGGGTCACGTGGGATC	0.09 kcal/mol
AGCGGCACGTGGCCGG	-0.13 kcal/mol
TAACGCACGTGTTATG	-0.05 kcal/mol
TGGGGCACGTGAGCCA	0.17 kcal/mol
TGCGCCACGTGGTTGT	-0.14 kcal/mol
AGGGCCACGTGAGGAG	0.13 kcal/mol
CGTTGCACGTGGTTGG	0.05 kcal/mol
TGTATCACGTGATCTG	0.13 kcal/mol
GATAGCACGTGTGTGT	-0.09 kcal/mol
TTGGGCACGTGTCTGC	-0.19 kcal/mol
CAGTGCACGTGAGTTA	0.34 kcal/mol
AATTGCACGTGTGTAG	0.01 kcal/mol
TATGACACGTGAGATG	0.22 kcal/mol
TTTATCACGTGGTTCG	0.09 kcal/mol

Sequence	relative binding free energy
GTTGGCACGTGGGAAT	-0.14 kcal/mol
GGCGACACGTGAAGGT	0.23 kcal/mol
AATTGCACGTGGGTGA	-0.05 kcal/mol
GACGGCACGTGTTATG	0.04 kcal/mol
TAGTGCACGTGCTGAT	-0.04 kcal/mol
AGTTTCACGTGATGTG	0.25 kcal/mol
CTTGACACGTGGTGTG	-0.12 kcal/mol
AAATTCACGTGATATT	0.22 kcal/mol
TTAATCACGTGATATG	0.24 kcal/mol
CGTTGCACGTGAGAGG	0.22 kcal/mol
GTCGCCACGTGCGGGG	-0.18 kcal/mol
ACGTTCACGTGGGCGT	0.14 kcal/mol
GTCGTCACGTGTGAGA	0.25 kcal/mol
CAGGTCACGTGGCTGG	-0.09 kcal/mol
TGTTTCACGTGAGTTT	0.44 kcal/mol
GTGATCACGTGAGGTA	0.16 kcal/mol
ATGATCACGTGGCGGA	0.17 kcal/mol
ATGGTCACGTGGCTGC	0 kcal/mol
GTTGTCACGTGGGGCG	0.08 kcal/mol
AGCAGCACGTGGGTGT	-0.25 kcal/mol
GGTTCCACGTGGGCTG	-0.04 kcal/mol
GATGTCACGTGTATAT	0.23 kcal/mol
TAGGACACGTGAGAAG	0.28 kcal/mol
ATTTGCACGTGTGTTT	0.01 kcal/mol
TTGGTCACGTGGAAGG	0.2 kcal/mol
GTATTCACGTGTGTCT	0.39 kcal/mol

Sequence	relative binding free energy
GTAATCACGTGTATTA	0.12 kcal/mol
ATTTACACGTGACTGT	0.15 kcal/mol
ATTTTCACGTGGCGTC	0.26 kcal/mol
GGTTGCACGTGGTTAT	0.17 kcal/mol
GGGCTCACGTGGGACG	0.26 kcal/mol
TATAGCACGTGGTACG	-0.14 kcal/mol
ATTGGCACGTGGGTGC	-0.23 kcal/mol
GAATACACGTGTAGGT	0.17 kcal/mol
CATTGCACGTGGTTTC	0 kcal/mol
AAGGTCACGTGTGCGA	0.05 kcal/mol
TTCTGCACGTGGGCTA	-0.11 kcal/mol
GTTTTCACGTGCTAAA	0.38 kcal/mol
GAGTACACGTGCGGGC	0.08 kcal/mol
GTTATCACGTGTGAGG	0.33 kcal/mol
CAGTGCACGTGATGGG	0.05 kcal/mol
AGTGTCACGTGGGAGG	-0.02 kcal/mol
CTGGGCACGTGTTCTG	-0.16 kcal/mol
GGTGGCACGTGGATAT	0.03 kcal/mol
TTGTTCACGTGGTTCC	0.29 kcal/mol
GTAATCACGTGGTGGT	0.12 kcal/mol
AGGTACACGTGGGGAA	-0.15 kcal/mol
TGGCACACGTGGTAGT	-0.11 kcal/mol
TTTTCCACGTGTAGGA	0.08 kcal/mol
GAACGCACGTGGGGGT	-0.25 kcal/mol
GCAGACACGTGAGGTG	0.21 kcal/mol
CTTGTCACGTGGGTAG	-0.11 kcal/mol

Sequence	relative binding free energy
TAATTCACGTGATGTC	0.29 kcal/mol
GTATACACGTGAGTTA	0.24 kcal/mol
TGCATCACGTGTGGTT	0.36 kcal/mol
TAGTACACGTGGTTGA	-0.02 kcal/mol
GATGTCACGTGTATGC	0.05 kcal/mol
AGTGTCACGTGCAGGT	-0.08 kcal/mol
TAAGCCACGTGGGAGT	-0.12 kcal/mol
GAGGACACGTGTGGAT	0.12 kcal/mol
TTGAACACGTGTTGCT	0.1 kcal/mol
AATCGCACGTGCGGGT	-0.05 kcal/mol
AAGATCACGTGTGTTA	0.11 kcal/mol
ATAAGCACGTGTGGTG	0.02 kcal/mol
TGCGTCACGTGATGAT	0.11 kcal/mol
AGCGGCACGTGGTTTA	-0.22 kcal/mol
TAGTTCACGTGATTTC	0.4 kcal/mol
ATTTACACGTGTTCGG	0.14 kcal/mol
TGGGGCACGTGTCTTG	-0.15 kcal/mol
ATGCTCACGTGTTTTT	0.03 kcal/mol
TTATACACGTGTGTAA	-0.05 kcal/mol
CAGGTCACGTGTGTAG	0.15 kcal/mol
GTCTACACGTGTTAGG	0.23 kcal/mol
CATTACACGTGTAGGG	0.17 kcal/mol
GTATGCACGTGTATTA	-0.09 kcal/mol
GAGTTCACGTGGAATG	0.49 kcal/mol
TGAGTCACGTGGGGAG	0 kcal/mol
TCTAGCACGTGTAATT	0.18 kcal/mol

Sequence	relative binding free energy
AGGGGCACGTGCAGCG	-0.2 kcal/mol
TTTTACACGTGGCCGG	-0.03 kcal/mol
GCACTCACGTGGGGGT	0.08 kcal/mol
AATCGCACGTGTTTGT	-0.06 kcal/mol
TTTTGCACGTGGAGGA	0.01 kcal/mol
TAAGGCACGTGCGGTA	-0.28 kcal/mol
TCGGACACGTGTGGGG	0.21 kcal/mol
TCCTGCACGTGTGTAG	0.11 kcal/mol
ACAGGCACGTGAGTTG	0.09 kcal/mol
TTGAACACGTGGGATT	-0.01 kcal/mol
ATGAGCACGTGGAGGA	0.02 kcal/mol
GCTGTCACGTGGGTGG	0.07 kcal/mol
GTTGGCACGTGATATG	-0.01 kcal/mol
TGGAACACGTGATGTA	0.16 kcal/mol
CGGGTCACGTGTTTGG	0.11 kcal/mol
TGGGGCACGTGTTTGC	-0.09 kcal/mol
TTTTACACGTGTAGGT	0.15 kcal/mol
TCGATCACGTGTGTTA	0.23 kcal/mol
TAGTACACGTGAGTAG	0.28 kcal/mol
TGTGGCACGTGCTAGA	-0.19 kcal/mol
TCGTACACGTGTCGTT	0.19 kcal/mol
AGTTTCACGTGTATTG	0.14 kcal/mol
